In all, about 33,000 sequences were measured (“E-score (-0.5 to 0.5)”: median about -0.053, highest 2% from about 0.37 on). The list shows a part of the results.
Molecular target: Hap1 (UniProt P0CE41)
Experiment: PBM E-score (8-mer binding enrichment) (E-score (-0.5 to 0.5)); higher = stronger / more preferred TF binding; most listed sequences are background and not binding sites
Details: protein concentration: 200 nM; construct: GST-DNA-binding domain
Experimental: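 Universal 'all 10-mer' protein binding microarrays (Agilent AMADID 015681) probed with GST-tagged S. cerevisiae TFs (full-length or DBD) made by in vitro transcription/translation (PURExpress), about 100-200 nM. Bound TF was detected with fluorescent anti-GST. Each ungapped 8-mer (which stands for itself and its reverse complement) is scored by the PBM enrichment score (E-score), a modified Wilcoxon-Mann-Whitney statistic from -0.5 to +0.5, computed with the Universal PBM Analysis Suite. Scale: above 0.35 generally sequence-specific binding.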

Chain of UniProt P0CE41 (P0CE41 whole entry): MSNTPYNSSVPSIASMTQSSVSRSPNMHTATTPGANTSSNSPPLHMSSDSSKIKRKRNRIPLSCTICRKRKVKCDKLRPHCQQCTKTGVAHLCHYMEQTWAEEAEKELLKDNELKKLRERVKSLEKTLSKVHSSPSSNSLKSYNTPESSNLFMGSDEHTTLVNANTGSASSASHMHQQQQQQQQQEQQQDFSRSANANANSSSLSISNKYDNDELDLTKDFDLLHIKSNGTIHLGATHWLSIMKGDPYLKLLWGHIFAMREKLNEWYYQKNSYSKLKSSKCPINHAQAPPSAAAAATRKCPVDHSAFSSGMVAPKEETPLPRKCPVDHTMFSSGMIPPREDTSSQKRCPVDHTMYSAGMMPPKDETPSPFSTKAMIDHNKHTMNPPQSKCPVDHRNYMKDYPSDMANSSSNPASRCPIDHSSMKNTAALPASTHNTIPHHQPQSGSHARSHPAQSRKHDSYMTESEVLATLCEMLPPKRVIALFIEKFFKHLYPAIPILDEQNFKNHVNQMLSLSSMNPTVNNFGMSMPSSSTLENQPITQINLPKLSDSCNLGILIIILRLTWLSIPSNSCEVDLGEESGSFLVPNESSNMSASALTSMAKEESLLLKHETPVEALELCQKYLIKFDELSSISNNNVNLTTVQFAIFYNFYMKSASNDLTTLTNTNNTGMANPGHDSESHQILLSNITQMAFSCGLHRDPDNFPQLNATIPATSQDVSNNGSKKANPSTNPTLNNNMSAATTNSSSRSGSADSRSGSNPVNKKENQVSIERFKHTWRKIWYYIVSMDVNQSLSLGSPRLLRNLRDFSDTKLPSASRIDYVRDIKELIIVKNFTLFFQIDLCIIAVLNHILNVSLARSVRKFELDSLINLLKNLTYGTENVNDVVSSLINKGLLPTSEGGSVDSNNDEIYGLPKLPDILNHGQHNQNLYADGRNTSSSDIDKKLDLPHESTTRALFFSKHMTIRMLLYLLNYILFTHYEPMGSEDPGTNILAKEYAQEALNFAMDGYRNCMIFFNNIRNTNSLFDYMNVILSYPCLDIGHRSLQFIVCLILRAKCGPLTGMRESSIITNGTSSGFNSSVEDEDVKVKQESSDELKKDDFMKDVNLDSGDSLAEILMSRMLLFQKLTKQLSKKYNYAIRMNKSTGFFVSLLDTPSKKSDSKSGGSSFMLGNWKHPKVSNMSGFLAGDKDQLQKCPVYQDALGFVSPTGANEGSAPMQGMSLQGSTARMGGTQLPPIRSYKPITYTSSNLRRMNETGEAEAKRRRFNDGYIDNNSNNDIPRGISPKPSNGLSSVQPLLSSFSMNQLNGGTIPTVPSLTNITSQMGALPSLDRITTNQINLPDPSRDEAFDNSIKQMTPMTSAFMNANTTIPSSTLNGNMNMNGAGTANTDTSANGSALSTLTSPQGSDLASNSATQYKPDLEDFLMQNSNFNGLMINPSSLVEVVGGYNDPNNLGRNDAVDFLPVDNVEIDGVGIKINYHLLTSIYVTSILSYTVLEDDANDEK

Sequence | PBM E-score
ACGACTTC | -0.124
GGCGTACA | -0.132
ATATTCAC | -0.0291
CCACGTCC | -0.0087
CACTTATC | 0.0508
CTGGGCAA | -0.151
CAATTTAA | -0.0535
ACTGGTAG | -0.206
CAAGCAAA | -0.15
CCATCTGA | -0.17
TAAGCTTA | -0.264
TTCAAAAA | -0.0615
CACACATC | -0.11
GTCGGACA | 0.347
TGGAGACA | -0.0431
TCAGTTAA | -0.0178
ACTGCATG | -0.114
ACAGCATG | -0.163
AATAGCCT | -0.152
GCTTTAGA | -0.0658
AGGATATA | 0.0407
CCAGTGTA | -0.136
CGTCGTTA | 0.0443
AACTAATT | 0.0862
GCTTTCTA | -0.0856

Sequence | PBM E-score
CACACAAG | -0.23
GGCGACCA | -0.0411
GGCTGTTA | 0.113
GTAGAACA | -0.266
ACCTCGCC | 0.0632
AAAACTGG | -0.0727
ACAGCACT | -0.0793
TATACATA | -0.222
CGAAGCAC | -0.119
CAATGTTA | -0.236
CGGGACAC | 0.228
CAAGAATG | -0.0801
GATAACAC | 0.129
AGGTATCC | 0.0381
ACATACAC | -0.146
AGGGACTA | -0.209
ATGGTGAC | -0.329
CAGAACTC | -0.141
AATGATGG | 0.0541
AATTCCCG | 0.34
CTTCATCA | -0.0477
CGATAGGC | 0.17
GCGTGCGA | -0.094
GGAGGAAA | 0.193
GTGCTGCA | 0.0816

Sequence | PBM E-score
CGTGAAAA | -0.0852
CCCGGAGA | 0.428
GCTGACGA | -0.228
ATCAGGGC | -0.185
CAGTAGAA | -0.229
AACTTCCT | -0.131
CGGGTGAC | 0.234
GCGACGCC | 0.173
GCCGTCAC | 0.162
AGAATATG | -0.0775
CTATTCTA | -0.106
CACAAGGA | -0.286
ACTGGGGG | -0.222
AATTGCGG | 0.102
ATAAAGCC | 0.292
GTTCGAGA | -0.135
AACGCCGC | 0.355
GTAGTAAC | 0.0801
CCCTATAG | -0.109
CGTTTACC | 0.0814
GATCCAAC | 0.0837
CTTACAAC | -0.137
CTGAGCAG | -0.183
AGCGAGTC | 0.0657
AGTGCAAG | -0.126

Sequence | PBM E-score
ATGGCCTC | -0.0258
AACCGAGC | 0.371
GAGAATGC | 0.0329
CCCCAAGC | 0.122
CGGCCGAG | 0.449
TCAATAGA | -0.222
ACAACGCC | 0.0572
CCTAGGGA | -0.112
GAGCGCCC | 0.0793
CACAATTC | -0.0215
TACATAAA | -0.215
AATACCCG | 0.329
CTGGCAAA | -0.146
ATCTTCGA | -0.116
GTGCGATA | 0.165
ACTATGTA | -0.239
ATGACTTG | -0.0601
ACTCCAAT | -0.18
GCGTGAAA | -0.0808
CTGAACTC | -0.207
TCCTCCAA | -0.155
ATGACTGC | -0.102
GAGTGTGC | 0.0713
GCCCACGA | -0.183
CAGGAAGC | -0.0892

Sequence | PBM E-score
GCGTGCAA | -0.19
AAAACCGG | 0.359
AGTGCCAC | -0.286
AAGCTGGG | -0.131
AGATGTCC | 0.156
GAGTAAAA | 0.0258
ACTAAATG | -0.164
GCTGGACA | -0.189
AAAAAACC | -0.0177
AGAGCCAA | -0.12
TGGGACCA | -0.19
CTAAGACC | 0.132
CTCCATAA | -0.15
AAGTGCCG | 0.167
CGCTGAAA | -0.00205
AGCTATAT | -0.11
GCCTCCTA | -0.165
TCAATTCA | -0.129
GGGCGAGA | 0.0917
CCCTTCCC | -0.0794
CTCTTCGA | 0.00021
CCGCGAGG | 0.272
AGTCTCCC | -0.0501
AGCGGACG | 0.297
GGCAGGAA | -0.15

Sequence | PBM E-score
GTACGGTA | 0.0448
ACCAAGAC | -0.0755
ATCCGAAA | 0.389
TAGCCTAA | -0.158
GTAGGGAC | -0.0187
ACTGGTGC | 0.0548
GAGGCGGC | 0.0321
CATATGAG | -0.0541
CCTATACG | -0.214
TAGTTCAA | -0.0733
AGTGGTCG | -0.0002
GGAGTCCC | -0.0836
AACTCACG | -0.188
TAGTGAGA | -0.197
CGGCGGTA | 0.428
GGGAAGGA | -0.139
GTTATAGA | -0.289
AAAAAATG | 0.00324
CCAACGGC | -0.0598
ATCTAACA | -0.22
ATGGAGCG | -0.0881
CCCGGTGC | 0.323
CCCTATAC | -0.184
ATTGGCGG | -0.0708
ACCCCAAG | -0.0426

Sequence | PBM E-score
ATCGGACA | 0.394
CGGAAGCA | 0.315
CGGATTAG | 0.305
TCCGCAAA | 0.327
GCGGCTGA | -0.125
AACGTCCA | -0.0731
AAGATCTA | -0.12
GACCTTAC | 0.196
CGTGAATA | -0.00945
ATCTGGCG | 0.0049
ACTCGTAA | -0.0238
CCTGTTAG | -0.152
GAGGCGGA | 0.239
CCAACAGC | -0.0833
AAGTACCC | -0.0579
CATATATC | 0.176
ATCTCTGG | -0.275
CGCTGGTC | -0.127
AGGTGTAA | -0.0467
TGGTGACA | -0.219
CCAGACAG | -0.128
ATCGCGAT | 0.17
ACTCCCCT | 0.0602
CGCCACAA | -0.105
CAAAGTGC | -0.13

Sequence | PBM E-score
GATCCTAC | -0.0541
GGGGCCGA | 0.233
TAGATCCA | -0.0506
CTGTGGCA | -0.287
AAGGTACT | -0.129
ACTATCAC | -0.111
ACGGGGGC | 0.0386
CGTGATTC | 0.0437
TCGCCACA | -0.0472
CATAGTAA | -0.0921
CCTTTGAA | -0.205
CCACTTTC | -0.11
AATCACCA | 0.137
ACAGGCCC | -0.237
AACTAAAT | -0.168
GTAACGAC | -0.0123
CATTCTTC | 0.0268
TACCAAAA | -0.121
CACTAGCA | -0.325
AGATACGA | -0.0531
ATGGGCTG | -0.189
TCGGCCAA | 0.256
CGAATGGC | 0.133
CAGGGACG | -0.189
CAGCCCAA | -0.112

Sequence | PBM E-score
CCCACTGC | -0.0617
GGCCACGA | 0.0965
CGAACCGA | 0.293
AGTGGCGG | -0.0718
TAGCTCCA | -0.0585
TCGTGCCA | -0.155
AATTAGCC | 0.0175
AGATTATG | 0.144
AGCGTGGG | -0.212
ACATCATA | -0.0643
CCATCCCC | 0.0741
CACATGCG | 0.152
CTCTTAGA | -0.185
TCGTCACA | -0.139
AGAAAAAC | -0.0202
CCGGTCCC | 0.323
ATTACGAG | -0.0195
GTGAGCCA | -0.339
ATAAATAA | 0.0473
CAATGGAA | 0.145
CCTCTTCA | -0.201
ATAAGTAA | 0.0425
CGGGATCC | 0.28
CCGTGAAA | 0.2
CTTTACTA | 0.0869

Sequence | PBM E-score
AACTTGCA | -0.173
GCCCCTGA | -0.186
ACGGTTTG | 0.0895
GCCTGATA | -0.176
AAAGGAAG | 0.0515
CTCGCGAA | 0.0108
GTACCTCA | -0.238
CTAGGCAC | -0.243
TACGATAA | 0.0399
CAAATTTC | -0.0418
AACTCGCT | 0.131
GACCACTC | 0.0772
AGCTCGCA | 0.00172
ACATACCG | 0.163
AGCATCAT | -0.156
TCGCCCGA | 0.362
CGGATAGC | 0.128
CCGTCAAA | 0.114
GATTTGAA | -0.078
ACAGTCTG | -0.192
GAGAGCCC | -0.16
GAGCCAGA | -0.0724
CTGACTGC | -0.22
GTGGAGGA | -0.125
GACACGCC | 0.0727

Sequence | PBM E-score
CTCAGTCA | -0.299
AGCTGGTA | -0.165
GGAAATTA | 0.292
TACTCAGA | -0.149
ATTAGAGC | 0.136
ACATCGAT | -0.089
ACTAAGGA | -0.162
TCAGCAAA | -0.157
ATTTCCTA | 0.0502
AAGTTTCT | -0.182
ATCCGTCA | 0.212
ACGGGCGG | 0.171
CGCGACCG | 0.176
GAGAGCGC | 0.0882
CAAGCCGG | 0.292
TCGACTCA | -0.169
ACGCCTAT | -0.0567
AAGCTTTC | -0.0343
CAGCTTGC | -0.0611
GCGAACGC | 0.0232
TAAGTTCA | -0.139
CACTGTTC | -0.16
CTAGCAGC | -0.188
GCATCGTA | -0.0705
AGTTCGGG | 0.326

Sequence | PBM E-score
GCAGTCTA | -0.25
ATCTGCAG | -0.0634
GCAGCTAA | 0.0163
GAAATTAC | 0.178
CGCAGTAA | 0.00425
AAAAGTAC | -0.111
GGTTAGTA | -0.00243
ATGTTACA | -0.169
CCAGATTA | -0.0959
ACTAGTTC | -0.0373
ACCCCTTG | -0.357
ATATACAG | -0.0679
CAGAGCCA | -0.318
ATCCTTAC | -0.172
ATAGATGA | -0.135
CGGGCAAA | 0.249
AGGCTTTA | -0.116
ACACGGAA | 0.179
CAATATGG | -0.177
AACCTACG | -0.167
GTTTTGGA | -0.054
CTCGACAA | -0.236
ACCCGTGG | -0.0105
ATCGATAA | 0.102
GTTGTTAA | 0.0298

Sequence | PBM E-score
CTTAGCAC | 0.111
GCTATAAA | -0.0266
ACGTACCG | 0.129
CGTTCGTA | 0.0644
GAATGATC | 0.00129
AGGTACCT | -0.144
CCTGAATC | -0.134
TATGGAGA | -0.00213
GCTAAGAA | 0.0725
ACCATACA | -0.0945
CGTAAGAG | -0.0129
AGCATCGG | 0.278
GGTTTCCA | -0.221
CGTTAGCA | 0.0694
GACGAAAA | 0.167
AGTTAGTA | -0.0745
ACTGCTAC | -0.0768
AGCCGGCT | 0.25
AGGATCTG | -0.303
CTTAGCCC | 0.0356
GCATAGCA | -0.201
AAGTTTAT | 0.145
AGGTGCAC | -0.0598
GACCTTGC | -0.133
ACAGAAAA | -0.0222

Sequence | PBM E-score
CCGCAAGA | 0.191
AGATCATA | -0.0882
AATATAGA | -0.137
AAACTCCT | -0.1
CACTACTA | 0.00169
ATTCGCAA | -0.00869
AAAGGCAA | -0.202
CACCCATG | 0.0203
GGGGTCTA | 0.125
GTATCCCA | -0.135
GACGCCTC | -0.0997
GGGAATTA | 0.236
CACTCTAA | -0.197
ACCGTTAC | 0.132
GCAGTTAC | 0.0164
CATTATAG | -0.0155
GTAAAGAA | -0.0559
CGAATGAC | 0.135
AAGAAGGC | -0.169

Source: the supplement of paper PMC3334620
